Test results: PubChem BioAssay AID686979 (National Center for Advancing Translational Sciences (NCATS), 2013)
In all, about 420,000 compounds went through this assay and about 50,000 (12%) were called active. This list was built around the results that the source calls inconclusive (neither active nor inactive); the mix of calls is not that of the screen. Calls come from the whole dose curve; as a rule, active = well fitted inhibition curve with a large enough effect; inconclusive = small, poorly fitted or top-dose-only effect; inactive = flat fitted curve, though single readings scatter. Potencies of inconclusive entries are left out as doubtful fits.
% is set by controls: 0 for no effect and ±100 for the full control effect; potency is the fitted concentration of half-maximal effect; tags give direction and shape of the fitted curve.

Assay: qHTS for Inhibitors of human tyrosyl-DNA phosphodiesterase 1 (TDP1): qHTS in cells in presence of CPT; note: nearly all actives have a fitted effect of over 55% in size
Conditions: chicken DT40 Tdp1-/-;hTDP1 cells + 20 nM CPT, ATP luminescence, 48 h; activity change, negative = growth inhibition: at 46.2 µM (top of the series) unless noted
Outline: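 Chicken DT40 Tdp1-/- cells stably complemented with human TDP1 were seeded at 400 cells/well in medium containing 20 nM camptothecin, exposed to pin-transferred compounds, and grown at 37 °C for at least 48 hr. Viability was read as ATP luminescence.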
For `O=C(CSc1nccc(=O)[nH]1)NC1CCCCCCC1`, the “activity change, negative = growth inhibition” value was inactive: -3.52%. With `O=C(CCN1C(=O)/C(=C/C=C/c2ccccc2)SC1=S)Nc1ccccn1` the Potency was active: 16.4 µM. In the case of `CCCCN1C(=O)c2[nH]nc(-c3ccccc3O)c2C1c1ccc(OCc2ccccc2)cc1` (stereo not drawn), the Potency is reported as active: 18.4 µM. In the case of `COC(=O)C1CCC(C)(C(=O)Nc2ccccc2)C1(C)C` (stereo not drawn), the Potency is reported as inconclusive [inhibitor, partial curve, poor fit]. For `COc1cccc2cc(C(=O)NCc3ccc(Cl)cc3)c(=N)oc12`, the Potency was active: 23.1 µM. For `O=C(c1cccc(F)c1)n1nnc2ccccc21`, the Potency was inconclusive [inhibitor, single point]. For `CCOC(=O)N1CCN(c2cc(NCCC(=O)O)c3c4c(onc24)-c2ccccc2C3=O)CC1`, the Potency was inconclusive [inhibitor, single point]. For `CC1N(C(=O)N(C)C)CCN1S(=O)(=O)c1ccccc1` (stereo not drawn), the “activity change, negative = growth inhibition” value was inactive: -4.67%. In the case of `Cc1ccc(NC(=O)C(=Cc2ccc(C(=O)O)cc2)C(=O)Nc2ccc(C)cc2C)c(C)c1`, the Potency is reported as active: 5.17 µM. In the case of `COc1cccc(-c2cnc(C(O)c3ccc(C(C)(C)C)cc3)[nH]2)c1` (stereo not drawn), the Potency is reported as inconclusive [inhibitor, single point]. With `Cc1nc2ccc(NC(=O)c3sccc3C)cc2s1` the “activity change, negative = growth inhibition” value was inactive: -14.7%. In the case of `COc1cc2c(cc1OC)CN(C(=O)CCOc1ccccc1)CC2`, the Potency is reported as inconclusive [inhibitor, partial curve, poor fit]. For `c1ccc(-c2nnc(SCCC3OCCCO3)o2)cc1`, the “activity change, negative = growth inhibition” value was inactive: 0.35%. With `O=C(CCc1nnc(C2(c3ccc(Cl)cc3)CCC2)o1)NCCCn1cccn1` the “activity change, negative = growth inhibition” value was inactive: 10.1%. With `CN(C)CCNC(=O)c1ccc2c(c1)NC(=O)C(CS(=O)(=O)Cc1cccc(Br)c1)N2` (stereo not drawn) the “activity change, negative = growth inhibition” value was inactive: -22.3%. For `CC(C)/C(O)=C1/C(=O)OC(c2ccoc2)[C@@]2(C)C(O)C(O)[C@@]34OC5(C)OC67CC(C)(C(O)[C@@]6(O)C(O)[C@@]3(O5)C12)C(CC(=O)O)[C@@]74C` (stereo partly drawn), the “activity change, negative = growth inhibition” value was inactive: 10.2%. In the case of `Cc1ccc(S(=O)(=O)N2CCCc3cc(NS(=O)(=O)c4cccc(Cl)c4)ccc32)cc1`, the Potency is reported as active: 20.6 µM. For `COc1ccccc1NC(=O)CSc1nnc(NC(=O)Nc2ccc(C)cc2)s1`, the Potency was inconclusive [inhibitor, single point]. With `COc1ccccc1OCC(=O)N1CC2(C)CC1CC(C)(C)C2` (stereo not drawn) the Potency was inconclusive [inhibitor, single point]. In the case of `CC1CN(C(=O)COc2ncnc3ccccc23)CC(C)O1` (stereo not drawn), the “activity change, negative = growth inhibition” value is reported as inactive: 0.437%. For `COc1cc(S(=O)(=O)NCc2ccncc2)c(OC)cc1Br`, the Potency was inconclusive [inhibitor, partial curve]. With `Cc1cccc(NC(=O)c2cc3n(n2)C(C(F)(F)F)CC(c2ccc4c(c2)OCO4)N3)c1` (stereo not drawn) the Potency was inconclusive [inhibitor, single point]. In the case of `CC(=O)c1ccc(NC(=O)CSc2nnc3ccc(-c4ccc(Br)cc4)nn23)cc1`, the Potency is reported as inconclusive [inhibitor, single point]. For `COc1cccc(C(=O)/C=C2\NCCc3cc(OC)c(OC)cc32)c1`, the Potency was inconclusive [inhibitor, single point]. With `COc1ccc(CNC(=O)c2cccc(S(=O)(=O)N3CCCCC3)c2)cc1OC` the Potency was active: 13 µM. In the case of `CN1/C(=C\C=C(C#N)C#N)C(C)(C)c2ccccc21`, the “activity change, negative = growth inhibition” value is reported as inactive: -7.03%. For `COc1ccccc1CNC(=O)CN(C)c1nn2c(=O)cc(C)nc2s1`, the Potency was inconclusive [inhibitor, single point]. In the case of `CCN1CCc2c(sc(NC(=O)Cc3ccccc3)c2C(=O)OC)C1`, the Potency is reported as active: 11.6 µM. With `COc1ccc2cc(CN(Cc3ccco3)Cc3nnnn3C3CCCCC3)c(=O)[nH]c2c1` the Potency was active: 25.9 µM. In the case of `CCCOc1ccc(N2C(=O)CC(SC(=N)N3N=C(c4ccccc4)CC3c3ccccc3)C2=O)cc1` (stereo not drawn), the Potency is reported as active: 18.4 µM. In the case of `CCOC(=O)/C(C#N)=C1\CCCN1CC(N)=S`, the “activity change, negative = growth inhibition” value is reported as inactive: -4.32%. With `N#Cc1nc(COc2ccc(Br)cc2)oc1N1CCCC1` the activity change, negative = growth inhibition was inconclusive: -30.4% [inhibitor]. In the case of `CC(O)(c1cccnc1)c1nc(-c2cccc(C(F)(F)F)c2)cs1` (stereo not drawn), the Potency is reported as active: 18.4 µM. For `CCc1nnc(NC(=O)CSc2nnc(-c3ccccc3O)o2)s1`, the “activity change, negative = growth inhibition” value was inactive: 9.78%. With `CCc1cccc(OCC(=O)Nc2ccc(C(=O)O)cc2NC(=O)COc2cccc(CC)c2)c1` the Potency was inconclusive [inhibitor, single point]. In the case of `CCn1cc(CN2CCc3c([nH]c4ccccc34)C2c2cccc(OC)c2)c(C)n1` (stereo not drawn), the Potency is reported as inconclusive [inhibitor, single point]. For `Cc1cc(Cl)ccc1OC(C)C(=O)Nc1ccc(S(=O)(=O)N2CCOCC2)cc1` (stereo not drawn), the Potency was inconclusive [inhibitor, single point]. In the case of `COC(=O)c1c(N)[nH]c(C(=O)c2ccccc2)c1-c1ccccc1Br`, the Potency is reported as inconclusive [inhibitor, single point]. With `COc1ccccc1NC(=O)CCC(=O)N1CC(C)Oc2ccc(C)cc21` (stereo not drawn) the Potency was inconclusive [inhibitor, single point]. In the case of `CCOc1cccc2sc(N(CCCN(C)C)C(=O)c3ccc(S(=O)(=O)N(C)c4ccccc4)cc3)nc12`, the Potency is reported as inconclusive [inhibitor, single point]. In the case of `Cc1ccc(NC(=S)N2CCCC(CO)C2)c(C)c1` (stereo not drawn), the “activity change, negative = growth inhibition” value is reported as inactive: -1.69%. With `Nc1sc2c(c1C(=O)NC1CCS(=O)(=O)C1)CCCC2` (stereo not drawn) the “activity change, negative = growth inhibition” value was inactive: 1.77%. For `C=CCC1C=C(C)CC(CC=C)N1` (stereo not drawn), the “activity change, negative = growth inhibition” value was inactive: 1.71%. For `O=C(CCCNC(=O)c1ccc(Cl)cc1)Nc1cccc(S(=O)(=O)N2CCCCC2)c1`, the Potency was inconclusive [inhibitor, single point]. In the case of `Cc1cc(C)n2cc(-c3ccc(Cl)cc3)c(C(=O)O)c2n1`, the “activity change, negative = growth inhibition” value is reported as inactive: -9.44%. In the case of `CCC(C)NC(=O)C1CCC(CNS(=O)(=O)c2ccc3c(c2)CC(C)N3C(C)=O)CC1` (stereo not drawn), the Potency is reported as inconclusive [inhibitor, single point]. With `COc1ccccc1-c1ccc2ncnc(N(C)Cc3ccco3)c2c1` the Potency was inconclusive [inhibitor, single point]. With `COC(=O)[C@]12CCCCC=C1N(Cc1ccc(Cl)cc1Cl)C(=O)[C@H](CC(=O)NCc1ccc(C)o1)C2` the Potency was inconclusive [inhibitor, single point].
